We go through 6 substances from article PMC12280212.

Some targets named below: PPIB (UniProt P23284); GANAB (UniProt Q14697); PDIA3 (UniProt P30101); PDIA6 (UniProt Q15084); RCN1 (UniProt Q15293); SERPINH1 (UniProt P50454); YWHAG (UniProt P61981); CALR (UniProt P27797); HSP90B1 (UniProt P14625); YWHAZ (UniProt P63104).
What all share (experiment): cross-linking mass spectrometry
What all share (details): DSSO, in cells

The source holds more than one record for some entries. This is not the full list of results. There may be further records. Some protein pairs were linked at several places, one record each.

Sequence of UniProt P23284 (P23284 whole entry): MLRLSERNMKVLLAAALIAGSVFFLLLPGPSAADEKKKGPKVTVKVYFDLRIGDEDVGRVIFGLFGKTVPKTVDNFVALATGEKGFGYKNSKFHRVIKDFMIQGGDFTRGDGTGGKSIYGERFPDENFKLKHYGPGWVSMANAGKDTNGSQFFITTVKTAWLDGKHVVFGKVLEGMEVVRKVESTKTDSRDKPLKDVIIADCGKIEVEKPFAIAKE
Sequence of PRKCSH (P14314 whole entry): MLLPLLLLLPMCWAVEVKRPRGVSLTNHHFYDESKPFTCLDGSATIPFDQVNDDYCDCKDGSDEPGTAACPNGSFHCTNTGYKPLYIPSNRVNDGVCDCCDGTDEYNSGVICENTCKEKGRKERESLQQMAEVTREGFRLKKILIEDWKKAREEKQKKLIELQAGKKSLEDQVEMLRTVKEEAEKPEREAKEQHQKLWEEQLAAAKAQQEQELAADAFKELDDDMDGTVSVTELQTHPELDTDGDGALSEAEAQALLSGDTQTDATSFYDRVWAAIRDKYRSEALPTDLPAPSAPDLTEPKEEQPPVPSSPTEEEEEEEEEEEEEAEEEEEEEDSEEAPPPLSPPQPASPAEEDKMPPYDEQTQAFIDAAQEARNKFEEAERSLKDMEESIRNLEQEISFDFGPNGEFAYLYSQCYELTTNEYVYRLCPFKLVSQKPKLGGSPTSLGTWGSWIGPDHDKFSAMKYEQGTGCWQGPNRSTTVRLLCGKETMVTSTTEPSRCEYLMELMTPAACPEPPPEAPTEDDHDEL
Sequence of UniProt Q15084 (Q15084 whole entry): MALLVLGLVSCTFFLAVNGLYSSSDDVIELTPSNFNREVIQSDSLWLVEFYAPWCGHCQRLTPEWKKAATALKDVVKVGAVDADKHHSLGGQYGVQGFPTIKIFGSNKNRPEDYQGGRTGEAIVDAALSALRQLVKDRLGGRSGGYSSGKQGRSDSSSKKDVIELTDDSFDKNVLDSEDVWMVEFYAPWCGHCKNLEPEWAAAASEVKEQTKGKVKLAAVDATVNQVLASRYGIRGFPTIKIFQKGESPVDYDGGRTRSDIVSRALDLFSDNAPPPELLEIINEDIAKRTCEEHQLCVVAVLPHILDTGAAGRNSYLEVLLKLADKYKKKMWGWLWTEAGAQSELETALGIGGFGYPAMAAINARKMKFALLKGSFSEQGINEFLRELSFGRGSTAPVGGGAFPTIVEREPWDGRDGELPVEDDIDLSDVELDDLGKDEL
Sequence of HSP90B1, P14625 (P14625 whole entry): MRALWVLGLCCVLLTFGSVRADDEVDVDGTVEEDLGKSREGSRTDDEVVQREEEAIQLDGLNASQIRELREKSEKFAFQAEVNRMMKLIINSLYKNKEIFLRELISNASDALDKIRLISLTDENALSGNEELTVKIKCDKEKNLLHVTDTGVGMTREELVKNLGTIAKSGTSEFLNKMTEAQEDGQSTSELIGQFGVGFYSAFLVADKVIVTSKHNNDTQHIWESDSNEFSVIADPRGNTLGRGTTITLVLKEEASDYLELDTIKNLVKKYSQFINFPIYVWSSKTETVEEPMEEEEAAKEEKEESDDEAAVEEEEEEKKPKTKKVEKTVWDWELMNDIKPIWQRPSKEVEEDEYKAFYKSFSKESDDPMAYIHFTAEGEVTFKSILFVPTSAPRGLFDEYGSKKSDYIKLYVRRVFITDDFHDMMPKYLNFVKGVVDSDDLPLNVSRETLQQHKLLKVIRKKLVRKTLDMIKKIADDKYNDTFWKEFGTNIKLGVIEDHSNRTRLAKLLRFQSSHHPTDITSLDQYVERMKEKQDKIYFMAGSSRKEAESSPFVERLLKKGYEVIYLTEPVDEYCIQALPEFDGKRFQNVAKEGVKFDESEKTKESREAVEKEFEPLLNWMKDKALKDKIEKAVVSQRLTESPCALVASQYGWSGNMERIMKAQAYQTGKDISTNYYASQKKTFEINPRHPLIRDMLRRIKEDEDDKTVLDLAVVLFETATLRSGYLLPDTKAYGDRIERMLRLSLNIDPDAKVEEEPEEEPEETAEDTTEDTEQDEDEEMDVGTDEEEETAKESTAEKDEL
Sequence of HSP90B1 (P14625 whole entry): as above
Sequence of CALR, P27797 (P27797 whole entry): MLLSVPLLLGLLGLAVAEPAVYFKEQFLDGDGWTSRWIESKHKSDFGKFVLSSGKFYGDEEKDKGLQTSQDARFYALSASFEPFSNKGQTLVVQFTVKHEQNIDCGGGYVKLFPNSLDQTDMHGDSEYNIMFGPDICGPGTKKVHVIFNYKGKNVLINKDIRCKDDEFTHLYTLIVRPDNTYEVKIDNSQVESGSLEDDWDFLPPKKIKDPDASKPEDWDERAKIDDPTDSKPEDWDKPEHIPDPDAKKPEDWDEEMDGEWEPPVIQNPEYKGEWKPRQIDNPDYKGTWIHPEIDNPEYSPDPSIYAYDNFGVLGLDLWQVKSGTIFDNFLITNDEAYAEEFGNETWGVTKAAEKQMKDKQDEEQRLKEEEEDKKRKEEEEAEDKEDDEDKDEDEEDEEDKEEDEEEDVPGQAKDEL
Sequence of CALR (P27797 whole entry): as above
Sequence of UniProt P50454 (P50454 whole entry): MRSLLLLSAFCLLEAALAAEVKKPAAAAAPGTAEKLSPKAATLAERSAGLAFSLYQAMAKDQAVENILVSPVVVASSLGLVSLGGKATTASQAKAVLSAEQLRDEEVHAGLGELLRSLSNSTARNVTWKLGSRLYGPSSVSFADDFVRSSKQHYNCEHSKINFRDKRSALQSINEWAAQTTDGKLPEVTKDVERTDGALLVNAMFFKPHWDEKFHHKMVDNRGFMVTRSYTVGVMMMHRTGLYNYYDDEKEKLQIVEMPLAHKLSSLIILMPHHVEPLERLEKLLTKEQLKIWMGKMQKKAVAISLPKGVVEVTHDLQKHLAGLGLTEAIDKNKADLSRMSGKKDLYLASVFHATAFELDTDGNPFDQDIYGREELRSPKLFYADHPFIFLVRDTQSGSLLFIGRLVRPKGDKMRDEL
Sequence of PDIA4 (P13667 whole entry): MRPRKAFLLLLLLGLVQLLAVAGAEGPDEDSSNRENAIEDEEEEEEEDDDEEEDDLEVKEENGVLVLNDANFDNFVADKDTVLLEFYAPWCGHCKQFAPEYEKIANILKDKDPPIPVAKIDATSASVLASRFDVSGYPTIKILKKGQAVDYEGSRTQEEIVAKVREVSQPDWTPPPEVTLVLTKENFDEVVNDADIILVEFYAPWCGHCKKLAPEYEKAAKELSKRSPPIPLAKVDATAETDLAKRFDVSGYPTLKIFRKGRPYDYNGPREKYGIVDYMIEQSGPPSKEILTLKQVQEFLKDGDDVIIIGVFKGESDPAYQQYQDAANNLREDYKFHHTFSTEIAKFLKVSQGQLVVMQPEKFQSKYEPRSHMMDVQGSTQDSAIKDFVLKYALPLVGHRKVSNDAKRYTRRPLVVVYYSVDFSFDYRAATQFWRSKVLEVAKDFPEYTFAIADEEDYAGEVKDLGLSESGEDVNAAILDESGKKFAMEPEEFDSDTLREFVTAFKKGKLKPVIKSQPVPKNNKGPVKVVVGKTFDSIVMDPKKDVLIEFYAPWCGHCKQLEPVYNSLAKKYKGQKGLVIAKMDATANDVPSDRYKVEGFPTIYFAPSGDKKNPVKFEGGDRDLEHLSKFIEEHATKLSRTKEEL
Sequence of UniProt P30101 (P30101 whole entry): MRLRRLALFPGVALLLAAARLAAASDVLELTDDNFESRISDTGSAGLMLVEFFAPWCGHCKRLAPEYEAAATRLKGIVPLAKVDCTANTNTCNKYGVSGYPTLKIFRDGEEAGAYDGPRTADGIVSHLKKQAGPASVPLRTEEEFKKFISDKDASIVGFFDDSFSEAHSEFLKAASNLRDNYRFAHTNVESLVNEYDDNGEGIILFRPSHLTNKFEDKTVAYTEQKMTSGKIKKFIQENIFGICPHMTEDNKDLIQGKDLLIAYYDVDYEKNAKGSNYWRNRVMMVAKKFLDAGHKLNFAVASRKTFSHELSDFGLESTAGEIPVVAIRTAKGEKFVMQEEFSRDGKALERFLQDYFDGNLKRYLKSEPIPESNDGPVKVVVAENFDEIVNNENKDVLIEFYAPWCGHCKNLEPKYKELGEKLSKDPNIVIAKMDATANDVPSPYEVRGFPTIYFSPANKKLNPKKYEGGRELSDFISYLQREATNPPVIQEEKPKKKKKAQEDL
Sequence of YWHAQ (P27348 whole entry): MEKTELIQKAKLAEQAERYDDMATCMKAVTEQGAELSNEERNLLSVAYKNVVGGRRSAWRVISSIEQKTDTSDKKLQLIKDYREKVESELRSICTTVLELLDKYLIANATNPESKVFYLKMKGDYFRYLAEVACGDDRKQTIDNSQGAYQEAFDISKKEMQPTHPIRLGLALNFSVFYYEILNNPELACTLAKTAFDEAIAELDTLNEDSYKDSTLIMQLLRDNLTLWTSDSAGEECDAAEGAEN
Sequence of UniProt Q15293 (Q15293 whole entry): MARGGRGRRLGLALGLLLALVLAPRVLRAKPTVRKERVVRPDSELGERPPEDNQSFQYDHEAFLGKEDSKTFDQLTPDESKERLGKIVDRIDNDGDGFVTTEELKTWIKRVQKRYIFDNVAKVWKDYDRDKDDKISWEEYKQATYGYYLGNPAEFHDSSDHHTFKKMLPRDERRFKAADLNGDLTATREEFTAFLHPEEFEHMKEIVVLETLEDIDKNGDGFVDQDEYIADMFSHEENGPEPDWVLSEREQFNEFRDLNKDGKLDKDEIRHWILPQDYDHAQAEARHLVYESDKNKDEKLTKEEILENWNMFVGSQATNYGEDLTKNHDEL
Sequence of YWHAG (P61981 whole entry): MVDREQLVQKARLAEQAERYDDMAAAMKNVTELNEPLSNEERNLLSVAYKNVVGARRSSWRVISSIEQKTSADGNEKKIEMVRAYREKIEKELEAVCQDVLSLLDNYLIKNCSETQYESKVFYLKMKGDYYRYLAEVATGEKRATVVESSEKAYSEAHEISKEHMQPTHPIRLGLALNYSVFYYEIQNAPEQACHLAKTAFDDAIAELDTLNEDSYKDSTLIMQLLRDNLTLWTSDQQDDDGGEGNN
Sequence of YWHAG, P61981 (P61981 whole entry): as above

In the case of PRKCSH, P14314, the cross-linked residues result with PPIB was “K158 - K116 and K191 - K116 and K436 - K116 and K436 - K186”.
Regarding CALR, P27797, the cross-linked residues entry was “K153 - K908 and K360 - K908” in the experiment with GANAB; “K41 - K332 and K43 - K82 and K43 - K94 and K43 - K104 and K43 - K130 and K43 - K425 and K43 - K466 and K43 - K494 and K62 - K466 and K64 - K104 and K64 - K130 and K64 - K466 and K143 - K130 and K153 - K82 and K153 - K94 and K153 - K104 and K153 - K129 and K153 - K130 and K153 - K214 and K153 - K226 and K153 - K460 and K209 - K75 and K209 - K82 and K209 - K94 and K209 - K104 and K209 - K129 and K209 - K130 and K215 - K75 and K215 - K82 and K360 - K82 and K360 - K104 and K360 - K214 and K360 - K226 and K360 - K417 and K360 - K460 and K360 - K494 and K368 - K417 and K368 - K422 and K368 - K425 and K368 - K466 and K368 - K494 and K374 - K332 and K374 - K415 and K374 - K417 and K374 - K422 and K374 - K425 and K374 - K460 and K374 - K494” with PDIA3; “K43 - K150 and K153 - K150 and K360 - K150 and K368 - K150” in the experiment with PDIA6; “K153 - K299 and K209 - K86” in the experiment with RCN1; “K41 - K39 and K43 - K190 and K43 - K287 and K62 - K39 and K62 - K190 and K62 - K410 and K143 - K39 and K153 - K39 and K153 - K190 and K153 - K252 and K153 - K332 and K209 - K39 and K209 - K190 and K360 - K39 and K360 - K190 and K360 - K252 and K360 - K287 and K360 - K308 and K360 - K332 and K360 - K334 and K360 - K410 and K360 - K413 and K368 - K39 and K374 - K334 and K374 - K413” with SERPINH1.
Turning to YWHAQ, P27348, in the experiment with YWHAG, the cross-linked residues entry was “K74 - M1 and K85 - K10”.
For HSP90B1, P14625, the cross-linked residues result with PDIA6 was “K597 - K150 and K597 - K159 and K633 - K150”; with PPIB it was “K161 - K92 and K348 - K92 and K547 - K84 and K547 - K116 and K597 - K92 and K597 - K186 and K603 - K116 and K633 - K92 and K633 - K116 and K633 - K186 and K671 - K116 and K682 - K116”; in the experiment with SERPINH1, “K547 - K190 and K603 - K410 and K671 - K39”.
For PDIA4, P13667, the cross-linked residues entry in the experiment with CALR is “K245 - K360 and K366 - K374 and K391 - K360 and K637 - K360”; in the experiment with HSP90B1, “K103 - K597 and K103 - K633 and K245 - K547 and K245 - K597 and K294 - K142 and K366 - K161 and K366 - K348 and K437 - K348 and K509 - K348 and K570 - K603 and K582 - K597”; in the experiment with PPIB, “K111 - K165 and K145 - K116 and K211 - K84 and K211 - K186 and K245 - K92 and K245 - K116 and K245 - K165 and K294 - K116 and K366 - K116 and K407 - K186 and K437 - K67 and K570 - K116”.
YWHAG, P61981: the cross-linked residues result in the experiment with YWHAZ is “M1 - K74 and K10 - K74”.
